Data on 31 variants can be found in the GPR68 mutational scans of Howard et al. (2025).

B1: GPR68, Q15743 (parent)
chain: MGNITADNSSMSCTIDHTIHQTLAPVVYVTVLVVGFPANCLSLYFGYLQIKARNELGVYLCNLTVADLFYICSLPFWLQYVLQHDNWSHGDLSCQVCGILLYENIYISVGFLCCISVDRYLAVAHPFRFHQFRTLKAAVGVSVVIWAKELLTSIYFLMHEEVIEDENQHRVCFEHYPIQAWQRAINYYRFLVGFLFPICLLLASYQGILRAVRRSHGTQKSRKDQIQRLVLSTVVIFLACFLPYHVLLLVRSVWEASCDFAKGVFNAYHFSLLLTSFNCVADPVLYCFVSETTHRDLARLRGACLAFLTCSRTGRAREAYPLGAPEASGKSGAQGEEPELLTKLHPAFQTPNSPGSGGFPTGRLA

The least precise scores are not listed. The source holds two more conditions with little spread; they are left out. Read del as a deletion of the residues named and ins as an insertion between two positions. For some of these results: The data file names ogerin without a concentration.

In data set [1] the parent is B1. In words: cAMP reporter score (Enrich2 score, wild type = 0); higher = more signal; HEK293T, FACS bins.
In data set [2] the parent is B1. The data set can be described thus: surface expression score (Enrich2 score, wild type = 0); higher = more signal; HEK293T, FACS bins.

As to Q21S, the cAMP reporter score in data set [1] (pH 5.5) is -0.358; in data set [1] (pH 6), -0.292; in data set [1] (pH 6, modulator: ogerin), -1.89; in data set [1] (pH 6.5, modulator: ogerin), -0.941. Also, the surface expression score in data set [2] worked out at 0.208.

As for Q21C, the cAMP reporter score is -1.04 in data set [1] (pH 5.5); -0.734 in data set [1] (pH 6); -1.38 in data set [1] (pH 6, modulator: ogerin); -1.37 in data set [1] (pH 6.5, modulator: ogerin). Moreover, the surface expression score in data set [2] was -0.866.

Q21V: the cAMP reporter score is 0.484 in data set [1] (pH 5.5); -0.405 in data set [1] (pH 6); -0.505 in data set [1] (pH 6, modulator: ogerin); -0.761 in data set [1] (pH 6.5, modulator: ogerin). For the same variant, the surface expression score in data set [2] was determined as 0.646.

On to Q21G, for which the cAMP reporter score in data set [1] (pH 5.5) is -0.218; in data set [1] (pH 6, modulator: ogerin) it was -0.682; in data set [1] (pH 6.5, modulator: ogerin) it was -0.293. In data set [2], the surface expression score came to 0.321.

As to Q21F, the cAMP reporter score in data set [1] (pH 5.5) is -0.413; in data set [1] (pH 6) it was -0.859; in data set [1] (pH 6, modulator: ogerin), -1.06; in data set [1] (pH 6.5, modulator: ogerin), -0.768. The surface expression score in data set [2] was determined as 0.783.

Take Q21E: the cAMP reporter score in data set [1] (pH 5.5) is 0.428; in data set [1] (pH 6), -0.197; in data set [1] (pH 6, modulator: ogerin) it was 0.012; in data set [1] (pH 6.5, modulator: ogerin), -0.524. Besides, the surface expression score in data set [2] was -0.019.

Consider Q21Y, for which the cAMP reporter score in data set [1] (pH 5.5) is -1.04; in data set [1] (pH 6) it was -1.35; in data set [1] (pH 6, modulator: ogerin), -1.35; in data set [1] (pH 6.5, modulator: ogerin) it was -0.941. The surface expression score in data set [2] is -0.125.

With Q21H, the cAMP reporter score in data set [1] (pH 5.5) is 1.06; in data set [1] (pH 6) it was -1.07; in data set [1] (pH 6, modulator: ogerin), 1.28; in data set [1] (pH 6.5, modulator: ogerin), -0.345. Moreover, the surface expression score in data set [2] amounted to 1.93.

In the case of Q21N, the cAMP reporter score is -1.02 in data set [1] (pH 5.5); -1.27 in data set [1] (pH 6, modulator: ogerin); -0.74 in data set [1] (pH 6.5, modulator: ogerin). In data set [2], the surface expression score amounted to 0.859.

As to Q21D, the cAMP reporter score in data set [1] (pH 5.5) was 0.408; in data set [1] (pH 6) it was -1.72; in data set [1] (pH 6, modulator: ogerin) it was -0.435; in data set [1] (pH 6.5, modulator: ogerin), -0.541. Besides, the surface expression score in data set [2] was -1.28.

As for Q21K, the cAMP reporter score in data set [1] (pH 5.5) is -1.36; in data set [1] (pH 6) it was -1.06; in data set [1] (pH 6, modulator: ogerin), -1.5; in data set [1] (pH 6.5, modulator: ogerin) it was -1.07. Besides, the surface expression score in data set [2] is 0.804.

Q21P: the cAMP reporter score in data set [1] (pH 5.5) is -0.89; in data set [1] (pH 6.5, modulator: ogerin), -1.48. Also, the surface expression score in data set [2] was -0.698.

For the variant Q21M, the cAMP reporter score in data set [1] (pH 5.5) is -0.071; in data set [1] (pH 6) it was -1.18; in data set [1] (pH 6, modulator: ogerin), -0.727; in data set [1] (pH 6.5, modulator: ogerin) it was -0.645. The surface expression score in data set [2] was -0.132.

In the case of Q21T, the cAMP reporter score in data set [1] (pH 5.5) was -0.652; in data set [1] (pH 6), -0.476; in data set [1] (pH 6, modulator: ogerin), -0.642; in data set [1] (pH 6.5, modulator: ogerin), -0.679. Also, the surface expression score in data set [2] is 0.183.

Take Q21R: the cAMP reporter score in data set [1] (pH 5.5) was -0.365; in data set [1] (pH 6), -0.946; in data set [1] (pH 6, modulator: ogerin), -0.555; in data set [1] (pH 6.5, modulator: ogerin) it was -0.81. Besides, in data set [2], the surface expression score came out at 0.298.

For the variant Q21A, the cAMP reporter score was 0.552 in data set [1] (pH 5.5); -0.054 in data set [1] (pH 6); -0.199 in data set [1] (pH 6, modulator: ogerin); -0.831 in data set [1] (pH 6.5, modulator: ogerin). The surface expression score in data set [2] was found to be 1.2.

As for Q21I, the cAMP reporter score in data set [1] (pH 5.5) was -0.518; in data set [1] (pH 6), 0.357; in data set [1] (pH 6, modulator: ogerin) it was -0.215; in data set [1] (pH 6.5, modulator: ogerin), -0.491. In data set [2], the surface expression score was determined as 0.292.

Q21L: the cAMP reporter score was 0.144 in data set [1] (pH 5.5); -0.656 in data set [1] (pH 6); 0.457 in data set [1] (pH 6, modulator: ogerin); -0.112 in data set [1] (pH 6.5, modulator: ogerin). Further, the surface expression score in data set [2] turned out to be 1.9.

Consider Q21W, for which the cAMP reporter score in data set [1] (pH 5.5) is -0.236; in data set [1] (pH 6) it was -1.03; in data set [1] (pH 6, modulator: ogerin), -0.367; in data set [1] (pH 6.5, modulator: ogerin), -1.01. Further, the surface expression score in data set [2] amounted to 0.316.

As to I15_D16del, the cAMP reporter score in data set [1] (pH 5.5) was -0.923; in data set [1] (pH 6) it was 0.165; in data set [1] (pH 6, modulator: ogerin) it was -0.554; in data set [1] (pH 6.5, modulator: ogerin), -0.217. For the same variant, the surface expression score in data set [2] is -0.897.

H17_T18insG: the cAMP reporter score in data set [1] (pH 5.5) was -0.249; in data set [1] (pH 6), -0.499; in data set [1] (pH 6, modulator: ogerin), -0.547; in data set [1] (pH 6.5, modulator: ogerin), -0.495. The surface expression score in data set [2] is 0.36.

For A24_V26del, the cAMP reporter score is -0.859 in data set [1] (pH 5.5); -1.28 in data set [1] (pH 6); -1.58 in data set [1] (pH 6, modulator: ogerin); -0.541 in data set [1] (pH 6.5, modulator: ogerin). In data set [2], the surface expression score is -2.49.

In the case of P25C, the cAMP reporter score in data set [1] (pH 5.5) is -1.44; in data set [1] (pH 6) it was -0.699; in data set [1] (pH 6, modulator: ogerin), -1.32; in data set [1] (pH 6.5, modulator: ogerin), -0.692. The surface expression score in data set [2] was 0.558.

As for P25D, the cAMP reporter score in data set [1] (pH 5.5) was -1.82; in data set [1] (pH 6), -0.638; in data set [1] (pH 6, modulator: ogerin), -1.84; in data set [1] (pH 6.5, modulator: ogerin) it was -0.76. Moreover, in data set [2], the surface expression score was -1.83.

As for P25A, the cAMP reporter score is 1.24 in data set [1] (pH 5.5); -0.23 in data set [1] (pH 6); 0.865 in data set [1] (pH 6, modulator: ogerin); 0.807 in data set [1] (pH 6.5, modulator: ogerin). The surface expression score in data set [2] came out at 4.05.

With T14_I15insGSG, the cAMP reporter score in data set [1] (pH 5.5) is -1.15; in data set [1] (pH 6), -1.13; in data set [1] (pH 6, modulator: ogerin), -1.18; in data set [1] (pH 6.5, modulator: ogerin) it was -1.42. In addition, the surface expression score in data set [2] is -0.992.

With S10_M11insG, the cAMP reporter score amounted to 0.283 in data set [1] (pH 5.5); 0.628 in data set [1] (pH 6); 0.418 in data set [1] (pH 6, modulator: ogerin); 0.534 in data set [1] (pH 6.5, modulator: ogerin). In addition, the surface expression score in data set [2] turned out to be 0.576.

For the variant C13_T14insG, the cAMP reporter score in data set [1] (pH 5.5) is 0.524; in data set [1] (pH 6), -0.363; in data set [1] (pH 6, modulator: ogerin), 0.047; in data set [1] (pH 6.5, modulator: ogerin) it was -0.27. Also, the surface expression score in data set [2] was -0.929.

Turning to S10_M11insGSG, the cAMP reporter score in data set [1] (pH 5.5) was 1.44; in data set [1] (pH 6), 1.71; in data set [1] (pH 6, modulator: ogerin) it was 2.02; in data set [1] (pH 6.5, modulator: ogerin), 2.29. Besides, in data set [2], the surface expression score worked out at 1.49.

On to Q21_T22insG, for which the cAMP reporter score in data set [1] (pH 5.5) was -0.655; in data set [1] (pH 6) it was -0.638; in data set [1] (pH 6, modulator: ogerin), -1.65; in data set [1] (pH 6.5, modulator: ogerin), -1.39. In data set [2], the surface expression score was -1.97.

Turning to M11_S12insG, the cAMP reporter score in data set [1] (pH 5.5) was determined as 1.51; in data set [1] (pH 6) it was 0.676; in data set [1] (pH 6, modulator: ogerin), 1.46; in data set [1] (pH 6.5, modulator: ogerin) it was 1.1. For the same variant, the surface expression score in data set [2] came out at 0.472.
